According to a collection of fitness landscapes (doi:10.1126/science.1257360):
The list shows a part of the results.

B1: PhoQ; a variant is named by its letters at X, in order, P23837 (parent)
chain: MKKLLRLFFPLSLRVRFLLATAAVVLVLSLAYGMVALIGYSVSFDKTTFRLLRGESNLFYTLAKWENNKLHVELPENIDKQSPTMTLIYDENGQLLWAQRDVPWLMKMIQPDWLKSNGFHEIEADVNDTSLLLSGDHSIQQQLQEVREDDDDAEMTHSVAVNVYPATSRMPKLTIVVVDTIPVELKSSYMVWSWFIYVLSANLLLVIPLLWVAAWWSLRPIEALAKEVRELEEHNRELLNPATTRELTSLVRNLNRLLKSERERYDKYRTTLTDLTHSLKTPLXXLQXXLRSLRSEKMSVSDAEPVMLEQISRISQQIGYYLHRASMRGGTLLSRELHPVAPLLDNLTSALNKVYQRKGVNISLDISPEISFVGEQNDFVEVMGNVLDNACKYCLEFVEISARQTDEHLYIVVEDDGPGIPLSKREVIFDRGQRVDTLRPGQGVGLAVAREITEQYEGKIVAGESMLGGARMEVIFGRQHSAPKDE

Variants of: B1
Assay: enrichment ratio after two sorts for PhoP signalling (ratio (wild type AVST 3.29)); higher = more functional
Details: with PhoP (E. coli)

Variant | enrichment ratio
GQQW | ≤ 0.25
VPKY | ≤ 0.25
VQPL | ≤ 0.25
MQIP | ≤ 0.25
PEAQ | ≤ 0.25
FPNC | ≤ 0.25
MLRP | ≤ 0.25
GGLY | 9.96
ICAR | ≤ 0.25
TDSS | 8.58
NSIS | ≤ 0.25
MGDF | ≤ 0.25
MKTC | ≤ 0.25
FKTK | ≤ 0.25
KRYR | ≤ 0.25
NTSR | ≤ 0.25
NYIK | ≤ 0.25
DCRI | ≤ 0.25
VWWF | ≤ 0.25
YECY | 0.863
RKTQ | ≤ 0.25
FGLI | 7.83
KTNV | ≤ 0.25
IDFA | ≤ 0.25
EYLK | ≤ 0.25
AQDD | ≤ 0.25

Variant | enrichment ratio
LFGH | ≤ 0.25
EYRK | ≤ 0.25
RCAL | ≤ 0.25
ERIK | ≤ 0.25
HRWD | ≤ 0.25
SFHT | ≤ 0.25
FDNE | ≤ 0.25
TWPK | 0.57
HTND | ≤ 0.25
QNNW | ≤ 0.25
GYNN | ≤ 0.25
IYWH | ≤ 0.25
DCWT | ≤ 0.25
FIPH | ≤ 0.25
LFLG | ≤ 0.25
QTGP | ≤ 0.25
VEVY | ≤ 0.25
FWLE | ≤ 0.25
VHFY | ≤ 0.25
WEQY | ≤ 0.25
FEIQ | 1.57
PNAI | ≤ 0.25
GLGG | ≤ 0.25
VMAF | ≤ 0.25
SFVT | ≤ 0.25
HDWN | ≤ 0.25

Variant | enrichment ratio
FSIN | ≤ 0.25
AIAT | 19.3
GLGI | 0.662
VWFD | ≤ 0.25
AFHK | ≤ 0.25
LVRN | ≤ 0.25
AHEN | ≤ 0.25
PIDE | ≤ 0.25
PLSG | ≤ 0.25
DCST | ≤ 0.25
GKPD | ≤ 0.25
HRLM | ≤ 0.25
GDVD | ≤ 0.25
ANQA | ≤ 0.25
IDSN | ≤ 0.25
HIVL | 0.399
HIGL | ≤ 0.25
QRAC | ≤ 0.25
TGPN | 2.28
HVKP | ≤ 0.25
AFVN | ≤ 0.25
PWNG | ≤ 0.25
PNMR | ≤ 0.25
TDLH | 11.1
GRQS | ≤ 0.25
SNGC | 10.7

Variant | enrichment ratio
SSKQ | ≤ 0.25
VDKP | ≤ 0.25
MHMF | ≤ 0.25
QLPR | ≤ 0.25
IIVA | ≤ 0.25
ENMP | ≤ 0.25
DEHF | ≤ 0.25
SDFP | ≤ 0.25
MCTR | ≤ 0.25
IPYH | ≤ 0.25
MNYW | ≤ 0.25
IQGA | ≤ 0.25
QASN | 11.4
TGGW | ≤ 0.25
RSAL | ≤ 0.25
MYRH | ≤ 0.25
DNFP | ≤ 0.25
LWVI | ≤ 0.25
IGTE | ≤ 0.25
DPPR | ≤ 0.25
GNFF | ≤ 0.25
WPRD | ≤ 0.25
EYWL | ≤ 0.25
PPDN | ≤ 0.25
VGIV | ≤ 0.25
YGDR | ≤ 0.25

Variant | enrichment ratio
MLVH | ≤ 0.25
ATQL | 0.667
ANNG | ≤ 0.25
RKAN | ≤ 0.25
CIVH | ≤ 0.25
MKTR | ≤ 0.25
TSAD | 2.17
EGHA | ≤ 0.25
HEAF | ≤ 0.25
ISTA | ≤ 0.25
TAEV | ≤ 0.25
YKNM | ≤ 0.25
TYIK | ≤ 0.25
SDRY | ≤ 0.25
HDFI | ≤ 0.25
FCFW | ≤ 0.25
MIAI | 6.65
THFG | ≤ 0.25
DFAF | ≤ 0.25
FAQL | ≤ 0.25
TGTS | 10.1
SNGS | 9.33
SVHK | ≤ 0.25
GNEP | ≤ 0.25
KCQH | ≤ 0.25
TAQI | 23.7

Variant | enrichment ratio
YRQK | ≤ 0.25
DHRA | ≤ 0.25
PPLI | ≤ 0.25
KPPV | ≤ 0.25
LWWQ | ≤ 0.25
NWYK | ≤ 0.25
FDPP | ≤ 0.25
MTWA | ≤ 0.25
IRVV | ≤ 0.25
EGHI | ≤ 0.25
WGMS | ≤ 0.25
SAPE | ≤ 0.25
VFQL | ≤ 0.25
RGYS | ≤ 0.25
PRLY | ≤ 0.25
SDMY | ≤ 0.25
EEGI | ≤ 0.25
RTFT | 0.297
EGNE | ≤ 0.25
FYNP | ≤ 0.25
IAQV | ≤ 0.25
KQMF | ≤ 0.25
MCFN | 4.25
